Laboratory results from PubChem BioAssay AID488969 (Vanderbilt High Throughput Screening Facility, 2010).
Whole data set: some 110,000 compounds, median “z-score” near -0.1, cut for the highest 2% near 2. This is one part of the list. The source made the active and inactive calls.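 Rule for the calls: active = z-score in the third read window above 3 or below -3; inactive = the rest.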

Molecular target: Metabotropic glutamate receptor 8 (Rattus norvegicus) (UniProt P70579)
Assay: mGluR8 Gi/Go-coupled signaling modulation – cell-based, rat, thallium flux, HTS, primary screen (AID 488969)
Settings: HEK293 rat mGluR8, GIRK (G protein-gated inwardly rectifying potassium channel) thallium flux, FluoZin2; at 10 µM; stronger effect = higher value; submaximal glutamate (EC20) added with thallium

Sequence of UniProt P70579 (P70579 whole entry, looked up): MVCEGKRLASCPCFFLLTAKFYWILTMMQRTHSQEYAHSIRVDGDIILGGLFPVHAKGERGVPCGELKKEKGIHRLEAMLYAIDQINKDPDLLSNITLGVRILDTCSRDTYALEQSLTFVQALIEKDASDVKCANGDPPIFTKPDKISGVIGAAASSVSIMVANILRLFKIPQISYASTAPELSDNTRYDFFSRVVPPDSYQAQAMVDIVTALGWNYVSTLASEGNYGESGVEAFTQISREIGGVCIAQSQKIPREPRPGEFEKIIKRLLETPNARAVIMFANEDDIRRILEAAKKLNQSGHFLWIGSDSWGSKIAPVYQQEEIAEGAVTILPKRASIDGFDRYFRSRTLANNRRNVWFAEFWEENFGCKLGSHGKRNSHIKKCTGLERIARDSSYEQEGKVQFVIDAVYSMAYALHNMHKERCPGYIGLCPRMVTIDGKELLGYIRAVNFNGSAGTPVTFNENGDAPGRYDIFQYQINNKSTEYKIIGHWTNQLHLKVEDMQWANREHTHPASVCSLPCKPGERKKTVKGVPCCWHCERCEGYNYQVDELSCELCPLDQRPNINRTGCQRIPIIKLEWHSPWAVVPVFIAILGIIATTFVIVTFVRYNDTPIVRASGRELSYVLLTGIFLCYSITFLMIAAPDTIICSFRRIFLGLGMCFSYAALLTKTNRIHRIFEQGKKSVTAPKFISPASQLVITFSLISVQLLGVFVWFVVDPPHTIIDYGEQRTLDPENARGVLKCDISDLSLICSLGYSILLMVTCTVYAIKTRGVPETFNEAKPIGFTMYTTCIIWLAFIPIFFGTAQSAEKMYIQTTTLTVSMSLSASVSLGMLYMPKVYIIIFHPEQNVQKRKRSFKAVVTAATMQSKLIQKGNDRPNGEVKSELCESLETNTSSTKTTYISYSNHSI

SMILES | z-score
CCC(=O)Nc1ccc(C(=O)CSc2nnc(CNc3ccc(Cl)cc3)o2)cc1OC | -0.38
CC(C(=O)Nc1cccc(Br)c1)c1ccc([N+](=O)[O-])cc1 (stereo not drawn) | -0.268
Cc1ccc(NC(=O)N2CCCC2C(=O)Nc2ccc(-n3cnnn3)c(C)c2)cc1 (stereo not drawn) | -0.415
CCOC(=O)C(=O)NNc1ccccc1C | 0.0736
CC(=O)Nc1ccc2c(c1)c1ccccc1n2C(C)=O | -0.0481
Cc1cccc(NS(=O)(=O)c2ccc(C)c(C(=O)OCC(=O)Nc3cc(C)on3)c2)c1 | -0.0733
C=CCN1C(=O)CS/C1=N/c1nccs1 | -0.225
CCOC(=O)c1ccc(NC(=O)CSc2nc(NC(=O)c3ccccc3)c3c(C)c(C)oc3n2)cc1 | 0.297
CCS(=O)(=O)NCCc1cc2cc(C)c(C)cc2[nH]c1=O | -0.163
CCCC1=C(C(=O)OCC)C(c2ccc(F)cc2)n2ncnc2N1 (stereo not drawn) | active: -3.56
CC(=O)N1CCN(CC(=O)Nc2ccc(Cl)c(S(=O)(=O)N(C)C)c2)CC1 | -0.0302
COC(=O)/C(=C\c1ccc2c(c1)c1ccccc1n2C)NC(=O)c1ccccc1 | -0.351
O=[N+]([O-])c1cccc(-c2nnc3c4ccccc4c4ccccc4n23)c1 | 0.134
Cc1ccc(NC(=O)c2ccc(OC(=O)c3ccco3)cc2)cc1 | -0.336
Cc1ccc(NC(=S)N2CCN(Cc3ccccc3)CC2)c(C)c1 | -0.121
Cc1csc(NC(=O)C2CCCN(S(=O)(=O)c3ccc(Br)s3)C2)n1 (stereo not drawn) | -1.92
CN(C)CCCCOc1cccc(Br)c1 | 0.476
CC(C)NC(=O)NC(=O)COc1cccc2c1OC(C)(C)C2 | -0.0245
O=C(Nc1cnc2ccccc2c1)C1COc2ccccc2O1 (stereo not drawn) | 0.17
Nc1ccc(S(=O)(=O)NNC(=O)C(=O)NNc2ccccc2)cc1 | -0.874
CCOC(=O)N1CCN(C(=O)c2ccc3c(=O)n(CCc4ccccc4)c(=O)[nH]c3c2)CC1 | -0.463
CC1(C(=O)NC2CCCCCCC2)CCC(=O)N1Cc1ccco1 (stereo not drawn) | -0.119

SMILES | z-score
CCCCS/C(=C(/C#N)C(N)=O)c1cc2c([nH]1)CCCC2 | -1.6
CCN(CC)CCNC(=O)C1CCN(S(=O)(=O)N2CCCCC2)CC1 | -0.146
Cc1ccc(C2=[N+]([O-])C(C)N(O)C2(C)C)o1 (stereo not drawn) | 0.109
CCc1c(C)sc(NC(=O)c2cc(-c3ccc(OC)c(OC)c3)on2)c1C#N | 0.139
COc1cc(S(=O)(=O)NC(C)C)ccc1Cl | -0.326
Cc1ccccc1NC(=O)CSc1nc(N)c(C#N)cc1C#N | -0.492
COc1ccc(CN(CCC(c2ccccc2)c2ccco2)C(=O)c2ccco2)cc1 (stereo not drawn) | -0.324
Cc1cc2ncn(-c3ncnc4scc(-c5ccccc5)c34)c2cc1C | -0.722
CCOC(=O)c1c[nH]c2c3c(ccc2c1=O)CCCC3 | -0.00312
CCC(=O)N(Cc1ccccc1)c1ccccn1 | -0.1
O=[N+]([O-])c1ccc(N/N=C2/CCCCC2c2ccccn2)c([N+](=O)[O-])c1 (stereo not drawn) | -0.955
Clc1cccc(Cl)c1CSc1cc2c(nn1)-c1ccccc1CC2 | -0.379
Cc1ccccc1OCC(=O)Nc1ccc(S(=O)(=O)Nc2ccccn2)cc1 | 0.014
COc1ccc(-c2cc(C(=O)Nc3c(C)nn(Cc4ccccc4)c3C)no2)cc1 | -0.433
CCOc1c(N2CCCCC2)c(=O)c1=O | -0.206
COc1cc(OC)cc(C(=O)N[C@H](C(=O)OCC(=O)Nc2ccc(C(C)C)cc2)C(C)C)c1 | -0.245
Cc1onc(-c2ccccc2Cl)c1C(=O)Nc1ccc2c(c1)OCO2 | 0.151
CN(C)c1nc(OCC(=O)NC(C)(C)C)nc(N(C)C)n1 | -0.142
O=[N+]([O-])/C(=C\Nc1ccccc1)S(=O)(=O)c1ccccc1 | -0.218
CCCCOC(=O)c1ccc(NC(=S)NC(=O)c2c(Cl)cnn2C)cc1 | active: 11.2
Cc1ccc(Cn2ncc3c(N4CCN(c5ccccc5C)CC4)ncnc32)cc1 | 0.00301
O=C(NCC1COc2ccccc2O1)c1ccccc1 (stereo not drawn) | 0.298

SMILES | z-score
CSc1nc(NCc2ccco2)c2c3c(sc2n1)CN(C)CC3 | -0.494
COc1cccc(C(=O)NNC(=S)NC2CCCCC2)c1 | -0.369
COc1ccc(C(=O)N(CN2CCCC2=O)c2ccc(C)cc2)cc1 | 0.00848
Cc1ccc(-c2nc3ccccc3o2)cc1NC(=O)c1ccc2c(c1)OCO2 | -0.198
NC(=O)CSCc1nc2ccccc2s1 | -0.12
Clc1ccccc1/C=N/NC1=Nc2cccc3cccc1c23 | -0.327
Cc1cc(C)c(NC(=O)/C=C\C(=O)O)c([N+](=O)[O-])c1 | -0.0766
CCOC(=O)c1sc(NC(=O)c2cc(-c3ccc(C)cc3)nc3ccccc23)c(C#N)c1C | -0.0507
COc1ccc(CCNC(=O)CCn2c(=O)[nH]c3cc(OC)c(OC)cc3c2=O)cc1OC | 0.0203
COc1cc(OC)cc(C(=O)NC(=S)Nc2cccnc2)c1 | 0.0131
CCOC(=O)NC(NC(=S)Nc1ccccc1[N+](=O)[O-])C(Cl)(Cl)Cl (stereo not drawn) | -0.166
COc1cccc(NC(=O)COC(=O)c2ccc(S(=O)(=O)NCc3ccco3)cc2)c1 | 0.212
Cc1nn(C(=O)c2ccco2)c(C)c1Sc1ccc(Cl)cc1 | -0.125
N#Cc1nc(-c2ccco2)oc1NCc1ccc(F)cc1 | 0.442
COCCNC(=O)C(C)N(c1ccc(OC)cc1)S(C)(=O)=O (stereo not drawn) | -0.193
Cc1cccc(N(CC(=O)N2CCCC2)S(=O)(=O)c2ccccc2)c1 | -0.418
Cc1ccc(Sc2ccc(C(=O)NC(C)C)cc2[N+](=O)[O-])cc1 | -0.167
COc1ccc(Cn2cccc(NC(=O)Nc3cccc(C#N)c3)c2=O)cc1 | 0.0526
Cc1ccc(C(=O)N/C(=C\C=C\c2ccccc2)C(=O)NCc2ccco2)cc1 | -0.239
CNC(=O)CN(C)S(=O)(=O)c1ccc(OC)c(Cl)c1 | 0.24
COc1ccc(Cl)cc1C(=O)NNC1CC(=O)N(Cc2ccc(Cl)cc2)C1=O (stereo not drawn) | -0.185
CCOC(=O)C1CCN(c2nc3ccccc3nc2C(C#N)C(=O)OC(C)C)CC1 (stereo not drawn) | 0.135

SMILES | z-score
Cc1ccc(S(=O)(=O)/C=C2\NC(=O)CS2)cc1 | 0.0347
NC(=O)CSc1ccc(Br)cc1 | -0.25
COC(=O)Nc1ccc(S(=O)(=O)N2CCN(C)CC2)cc1 | -0.00413
O=C(Nc1ccc2c(c1)OCO2)c1sc2cc(Cl)ccc2c1Cl | -0.166
CCCN(CCC)S(=O)(=O)c1ccc(C(=O)N2CCCc3ccccc32)cc1 | -0.607
CS(=O)(=O)N(CC(=O)NCc1ccccn1)Cc1ccc(Cl)cc1 | 0.0464
Cc1ccc(-c2cc(C(=O)Nc3sc4c(c3C(=O)NCc3ccco3)CCC4)[nH]n2)c(O)c1 | 0.202
O=C(CNC(=O)c1ccc(Cl)cc1)NCC(F)(F)F | -0.0227
O=C(O)CCCC(=O)NS(=O)(=O)c1ccc(Cl)cc1 | -0.379
Cc1ccc(C(=O)COC(=O)c2ccc3c(c2)C(=O)N(c2cccc4ncccc24)C3=O)cc1 | 0.247
COc1ccc(OC)c(NC(=O)c2cccnc2Sc2ccccc2)c1 | -0.336
COC(=O)c1[nH]c2cc(OC)ccc2c1NC(=O)c1ccc2c(c1)OCO2 | 0.0807
Cc1nn(C)cc1CNC(=O)c1ccccc1Br | 0.221
COc1cc(C(=O)Nc2ccc(Oc3ncnc4sc(-c5ccccc5)cc34)cc2)cc(OC)c1OC | 0.344
COc1ccccc1Nc1nc(N)nc(CSc2nc(C)cc(C)n2)n1 | 1
COc1ccccc1NC(=O)C(=O)N/N=C(\C)CC(=O)Nc1ccc(OCc2ccccc2)cc1 | -0.235
CCOC(=O)c1c(NC(=O)CSc2nnc(-c3ccco3)o2)sc(C)c1C | -0.799
CCOC(=O)C1=C(CC)Nc2ccccc2N=C1NC(=O)Cn1cnc2ccccc2c1=O | -0.141
CC1=C(OC(=O)c2ccccc2)C(C)(C)C(c2ccccc2)OC1=O (stereo not drawn) | -0.174
Cc1sc(/N=C/c2c(O)ccc3ccccc23)c(C#N)c1C | 0.123
O=C1C(Nc2cccc(O)c2)=C(N2CCCCC2)C(=O)c2ccccc21 | 0.369
CCOC(=O)c1c(C)oc2cc3c(C(=O)OCC)c(C)oc3cc12 | -0.093

SMILES | z-score
O=C(O)CCC(=O)N1CCc2cc(S(=O)(=O)Nc3ccc4c(c3)OCCO4)ccc21 | -0.517
Cn1c2c(c(=O)c3ccccc31)CCC(C)(C)O2 | -0.255
CCCn1c(=O)[nH]c(=O)c2c1nc(-c1ccc(OC(F)F)cc1)n2CCN1CCOCC1 | -0.179
Cc1ccc2[nH]c3c(c2c1)CN(C(=O)CN1c2ccc(F)cc2CCC1C)CC3 (stereo not drawn) | -0.0592
COc1ccccc1-n1c(SCC(=O)O)nnc1-c1ccc(S(=O)(=O)N2CCCCC2)cc1 | -0.42
O=C(CCCn1c(=O)c2ccccc2n(CC(=O)NCc2ccco2)c1=O)NCc1ccco1 | -0.277
CCn1c(SCc2ccccc2)nnc1-c1cccs1 | 0.797
COc1cc(C2CC(=O)N3CN(c4ccccc4C)CSC3=C2C#N)cc(OC)c1OC (stereo not drawn) | 0.237
O=C(NN1C(=O)C2C3C=CC(C4CC34)C2C1=O)c1ccc(Cl)cc1Cl (stereo not drawn) | -0.0308
Cc1sc(NC(=O)c2cccs2)c(C(=O)OC(C)C)c1C | 0.117
COc1ccc(NC(=O)C(Sc2nnc3ccccn23)c2ccccc2)cc1Cl (stereo not drawn) | -0.0405
O=C(NCCCn1ccnc1)c1cc2ccccc2oc1=O | -0.0604
COc1ccccc1CNC(=O)/C=C/c1cc2c(cc1Br)OCO2 | -0.0108
C/C(CCc1ccc2c(c1)OCO2)=N\N=C1\NC(=O)CC(C(=O)Nc2ccc(Cl)cc2)S1 (stereo not drawn) | -0.259
CC1(C)CC(=O)C2=C(C1)N(c1ccc(F)cc1)C(=O)C2(O)C(F)(F)F (stereo not drawn) | -0.0291
Cc1nn(-c2ccccc2)c2c1C(=O)N(c1ccccc1)C(=O)C(C)(C)C2 | 0.165
O=C(CSc1ncc(-c2ccccc2)[nH]1)Nc1cccc(O)c1 | -0.0843
CC(=O)Nc1ccc(S(=O)(=O)NNC(=O)COc2cccc3ccccc23)cc1 | 0.0073
CCCCNCC(=O)Nc1sc(C)c(C)c1C(=O)OCC | -0.497
O=C(c1ccco1)n1nc(NCc2ccccc2)nc1NCc1ccccc1 | 0.126
